Molecules are shown by their SMILES. For some of these results: Shown are results outside the selection of strong results, which stands elsewhere. This is a selection; strong and weak results do not stand in their true shares.

What all share (settings): concentration: 1 μM,replicates: in singlicate; n = 1
Assay [1] has as its system FLT4.
The test system of assay [2] is FRK.
In assay [3] the test system is FYN.
Assay [4] deals with GAK.
For assay [5], the system named is T1, GCN2(Kin.Dom.2,S808G).
T1 construct: gene EIF2AK4

Assay [6] concerns GRK1.
In assay [7] the test system is T2, GRK2.
T2 construct: gene ADRBK1

Assay [8] deals with T3, GRK3.
T3 construct: gene ADRBK2

Assay [9] relates to GRK4.
The subject of assay [10] is GRK7.
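Note: KINOMEscan kinase panel screen.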

With `O=C1NC(=O)C(c2ccccc2)=C1Nc1cc(Cl)c(O)c(Cl)c1` [SB-390530], the “%Inh” value in assay [1] is listed as 0%; in assay [2] it was 0%; in assay [3] it was 0%; in [4], 15%; in [5], 15%; in [6] it was 0%. In addition, the “%Inh” value in [7] turned out to be 0%; in assay [8], 28%; in assay [9], 28%; in [10] it was 29%.

As for `CS(=O)(=O)c1ccccc1-c1nc(-c2ccc(F)cc2)c(-c2ccncc2)[nH]1` [SB-213663], the “%Inh” value in [1] turned out to be 1%; in assay [2], 12%; in [3] it was 0%; in [4], 63%; in assay [5], 9%; in assay [6] it was 0%. Besides, the “%Inh” value in assay [7] was 48%; in [8], 0%; in assay [9] it was 22%; in assay [10], 31%.

`O=C1NC(=O)C(c2ccc(Cl)cc2)=C1Nc1ccccc1` [SB-317661]: the “%Inh” value in assay [1] is 0%; in [2], 0%; in [3] it was 0%; in assay [4], 0%; in [5], 0%; in [6] it was 41%. The “%Inh” value in assay [7] amounted to 0%; in [8] it was 39%; in assay [9], 11%; in assay [10], 0%.

As for `COc1cccc(C2=C(Nc3ccc(SC)cc3)C(=O)NC2=O)c1` [SB-331032], the “%Inh” value in assay [1] is given as 3%; in assay [2], 2%; in [3], 0%; in [4], 0%; in assay [5], 0%; in assay [6], 32%. Moreover, the “%Inh” value in [7] is on record as 12%; in [8], 0%; in assay [9] it was 6%; in [10], 0%.

Turning to `O=C1NC(=O)C(c2ccc(Cl)cc2)=C1Nc1ccc(O)c(Cl)c1` [SB-405367], the “%Inh” value in assay [1] worked out at 7%; in assay [2], 0%; in assay [3], 0%; in [4] it was 0%; in assay [5], 0%; in assay [6] it was 41%. The “%Inh” value in assay [7] stood at 0%; in assay [8], 0%; in assay [9], 0%; in assay [10], 29%.

For the molecule `O=C1NC(=O)C(c2ccc(Cl)cc2)=C1Nc1cccc(O)c1` [SB-333613], the “%Inh” value in assay [1] turned out to be 0%; in [2], 0%; in assay [3] it was 0%; in [4] it was 5%; in assay [5] it was 5%; in assay [6], 17%. The “%Inh” value in [7] is on record as 44%; in assay [8] it was 51%; in [9] it was 11%; in assay [10], 37%.

For `CSc1ccc(NC2=C(c3cccc(Cl)c3)C(=O)NC2=O)cc1` [SB-341528], the “%Inh” value in [1] worked out at 0%; in assay [2], 0%; in assay [3] it was 0%; in [4] it was 4%; in assay [5] it was 15%; in assay [6] it was 8%. In addition, the “%Inh” value amounted to 0% in [7], 0% in assay [8], 0% in [9] and 42% in assay [10].

With `O=C1NC(=O)C(c2ccccc2)=C1Nc1ccc(Cl)c(C(=O)O)c1` [SB-390532], the “%Inh” value in assay [1] was 29%; in [2], 10%; in assay [3], 46%; in [4], 12%; in assay [5], 14%; in assay [6], 6%. Moreover, the “%Inh” value in assay [7] is 0%; in [8], 65%; in [9] it was 0%; in [10], 0%.

Regarding `Cc1ccc(C)c(Oc2nccc(-c3c(-c4ccc(F)cc4)ncn3C3CCNCC3)n2)c1.O=C(O)C(F)(F)F.O=C(O)C(F)(F)F.O=C(O)C(F)(F)F` [SB-284852], the “%Inh” value in [1] came to 0%; in assay [2], 7%; in assay [3], 33%; in [4] it was 97.7%; in assay [5] it was 0%; in assay [6], 0%. Moreover, the “%Inh” value in [7], in assay [8], in [9] and in [10] was 0% in each case.

With `O=C1NC(=O)C(c2ccccc2Cl)=C1Nc1ccccc1` [SB-376715], the “%Inh” value in [1] is reported as 17%; in assay [2], 2%; in assay [3], 21%; in assay [4] it was 89%; in assay [5], 0%; in assay [6], 0%. The “%Inh” value in assay [7], in assay [8], in assay [9] and in assay [10] was 0% in each case.

As to `COc1ccc(C2=C(Nc3cccc(Cl)c3)C(=O)NC2=O)cc1` [SB-326892], the “%Inh” value was 16% in [1]; 0% in assay [2]; 0% in assay [3]; 1% in [4]; 100% in assay [5]; 0% in assay [6]. The “%Inh” value in assay [7] was found to be 0%; in assay [8], 0%; in assay [9] it was 9%; in [10] it was 0%.

For the molecule `O=C1NC(=O)C(c2ccccc2Cl)=C1Nc1cccc(C(=O)O)c1` [SB-390526], the “%Inh” value was 18% in assay [1]; 2% in assay [2]; 7% in assay [3]; 11% in [4]; 0% in assay [5]; 0% in assay [6]. The “%Inh” value in assay [7] worked out at 0%; in [8], 5%; in assay [9], 20%; in assay [10], 0%.

Turning to `O=C(O)c1ccc(-c2nc(-c3ccc(F)cc3)c(-c3ccncc3)[nH]2)cc1` [SB-202620], the “%Inh” value in [1] is given as 19%; in assay [2], 12%; in assay [3] it was 0%; in assay [4], 71%; in assay [5], 38%; in assay [6], 22%. The “%Inh” value was 0% in assay [7], 0% in assay [8], 27% in [9] and 0% in assay [10].

Turning to `O=C1NC(=O)c2c1c(-c1ccccc1)cc1[nH]c3ccc(O)cc3c21`, the “%Inh” value in assay [1] is on record as 1%; in assay [2] it was 29%; in assay [3], 35%; in [4] it was 92.1%; in assay [5], 73%; in assay [6], 17%. Further, the “%Inh” value in assay [7] was found to be 12%; in assay [8], 21%; in assay [9], 90.1%; in assay [10] it was 7%.

Regarding `O=C1NC(=O)C(c2ccc(Cl)cc2)=C1Nc1cccc(C(=O)O)c1` [SB-360737], the “%Inh” value was determined as 6% in assay [1]; 0% in [2]; 33% in [3]; 0% in assay [4]; 0% in assay [5]; 0% in assay [6]. In addition, the “%Inh” value in assay [7], in [8], in assay [9] and in [10] was 0% each time.

With `Cc1cc(C)cc(Oc2nccc(-c3c(-c4ccc(F)cc4)ncn3C3CCNCC3)n2)c1.O=C(O)C(F)(F)F.O=C(O)C(F)(F)F.O=C(O)C(F)(F)F` [SB-284851], the “%Inh” value in assay [1] came out at 5%; in [2], 0%; in [3], 3%; in assay [4], 6%; in assay [5] it was 72%; in [6], 15%. Besides, the “%Inh” value in assay [7] is 0%; in assay [8], 0%; in [9], 9%; in [10], 0%.

These data come from article PMC5540273 (PLoS ONE, 2017).
